Measured values taken from PubChem BioAssay AID1346428 (National Center for Advancing Translational Sciences (NCATS), 2018).
About 1,200 (2.5%) of roughly 48,000 compounds were called active. About 2% were inconclusive and are not listed.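 Rule for the calls: active = activation of at least 60% and not above a set upper limit (about 1 call in 100 departs from these limits); inconclusive = activation of 40% to 60%, or above that upper limit; inactive = activation under 40%.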 Some of the results follow.

These molecules were tested against Probable G-protein coupled receptor 32 (Homo sapiens) (UniProt O75388) (assay: qHTS for Agonists of Human Resolvin D1 Receptor DRV1). Details: CHO-K1 GPR32 beta-arrestin PathHunter luminescence, 90 min; at 76.9 µM; stronger effect = higher value; zero percent set by DMSO-only wells.
In short: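 PathHunter enzyme-fragment complementation, CHO-K1 GPR32 stable line; 2,500 cells/well, overnight attach; cpd 90 min 37 °C 5% CO2; detection reagent 1 h RT; chemiluminescence. DMSO = EC0.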

Chain of UniProt O75388 (O75388 whole entry, looked up, the tested form may be a part): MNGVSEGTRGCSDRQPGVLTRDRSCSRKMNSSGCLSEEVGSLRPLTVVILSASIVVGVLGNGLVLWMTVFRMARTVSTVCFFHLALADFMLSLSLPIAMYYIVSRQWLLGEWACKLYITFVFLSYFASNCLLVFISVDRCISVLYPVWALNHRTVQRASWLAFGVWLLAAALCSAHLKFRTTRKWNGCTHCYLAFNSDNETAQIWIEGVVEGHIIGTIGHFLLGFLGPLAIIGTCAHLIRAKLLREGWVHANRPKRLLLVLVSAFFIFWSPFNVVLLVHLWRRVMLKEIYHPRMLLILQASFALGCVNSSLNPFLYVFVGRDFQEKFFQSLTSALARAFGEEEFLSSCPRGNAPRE

Row | SMILES | activation
1 | Cc1ccc(NC(=O)Cn2cc3c(n2)CCC(C)C3)cc1C (stereo not drawn) | inactive: -7.59%
2 | Cc1cccc(Cn2c(=O)n(Cc3ccc4c(c3)OCO4)c(=O)c3oc4ccccc4c32)c1 | inactive: -21.1%
3 | CCc1ccccc1NC(=O)c1cc2nc(-c3ccc(OC)c(OC)c3)cc(C(F)(F)F)n2n1 | inactive: -3.42%
4 | CCOc1ccc(CNC(=O)c2ccc3c(c2)nnn3C2CCCC2)cc1 | inactive: 6.23%
5 | Cc1ccc(S(=O)(=O)C(CNC(=O)Cc2ccc(Cl)cc2)c2cccs2)cc1 (stereo not drawn) | inactive: -13.9%
6 | CC(C)C(=O)Nc1cccc(C(=O)Nc2nnc(CC(C)(C)C)s2)c1 | active: 61.7%
7 | COc1ccccc1N1CCN(C(=O)Nc2cn(CC(C)C)c(=O)c3ccccc23)CC1 | inactive: -15%
8 | CCOCCCNC(=O)c1c(NC(=O)c2cc(=O)c3ccccc3o2)sc2c1CCC2 | inactive: -18.9%
9 | O=c1oc2c(CN3CCCC3)c(O)ccc2cc1-c1ccccc1 | inactive: 12.3%
10 | COc1cc2ccccc2cc1C(=O)Nc1ccc2oc(-c3ccc(Cl)cc3)nc2c1 | inactive: -28.4%
11 | CCOC(=O)c1ccc(NC(=O)Cn2ncc3c(C)n(Cc4ccccc4F)c(C)c3c2=O)cc1 | inactive: -9.31%
12 | COC(=O)c1ccc(NC(=O)Cn2c(=O)nc(-c3ccccc3)c3ccccc32)cc1 | inactive: -10.9%
13 | CCCCN(C)CC(O)Cn1cc(/C=C/C(=O)c2ccc(C)cc2)c2ccccc21 (stereo not drawn) | active: 65%
14 | CC(C)c1ccc(NC(=O)Nc2csc3c2CCCC3)cc1 | inactive: 19.3%
15 | O=C(Nc1ccc(C(=O)OCc2cc(=O)n3c4c(sc3n2)CCCC4)cc1)c1ccc(Cl)cc1 | inactive: -25.9%
16 | Cc1ccc2c(=O)cc(C(=O)Nc3c(C(=O)Nc4cccc(Cl)c4)oc4ccccc34)oc2c1 | inactive: -9.46%
17 | O=C(c1ccc(Br)s1)N(Cc1cccnc1)c1nc2ccc(F)cc2s1 | inactive: -5.95%
18 | CCOc1ccccc1NC(=O)CN1C(=O)COc2ccc(S(=O)(=O)N3CCCCC3)cc21 | inactive: -14%
19 | CCOc1cccc(NC(=O)C2CC(=O)N(C)C(=Nc3ccc(F)cc3)S2)c1 (stereo not drawn) | active: 77.6%
20 | Cc1ccc(N2C(=O)CSC23C(=O)N(CC(=O)NC2CCCCC2)c2ccccc23)cc1C (stereo not drawn) | inactive: -32.4%
21 | Cn1cc(C(c2ccccc2)c2ccc(Cl)s2)c2ccccc21 (stereo not drawn) | inactive: -28.7%
22 | CCOC(=O)c1c(C)oc2ncnc(Nc3cc(Cl)ccc3OC)c12 | inactive: 9.79%
23 | Nc1nc(=O)n([C@@H]2O[C@H](CO)[C@@H](O)[C@@H]2F)cc1I | inactive: -10.4%
